PMC4336329 (PLoS ONE, 2015)
The whole screen tested about 310,000 compounds, of which about 2,200 (0.71%) showed an effect of 50% or more. Effects have a minus sign here. This is one part of the list.

Each compound was assayed against human ether-à-go-go-related gene (hERG) potassium channel (human, UniProt Q12809) (assay: primary screen, population patch clamp on CHO cells stably expressing hERG).
Sequence of human ether-à-go-go-related gene (hERG) potassium channel (Q12809 whole entry, looked up): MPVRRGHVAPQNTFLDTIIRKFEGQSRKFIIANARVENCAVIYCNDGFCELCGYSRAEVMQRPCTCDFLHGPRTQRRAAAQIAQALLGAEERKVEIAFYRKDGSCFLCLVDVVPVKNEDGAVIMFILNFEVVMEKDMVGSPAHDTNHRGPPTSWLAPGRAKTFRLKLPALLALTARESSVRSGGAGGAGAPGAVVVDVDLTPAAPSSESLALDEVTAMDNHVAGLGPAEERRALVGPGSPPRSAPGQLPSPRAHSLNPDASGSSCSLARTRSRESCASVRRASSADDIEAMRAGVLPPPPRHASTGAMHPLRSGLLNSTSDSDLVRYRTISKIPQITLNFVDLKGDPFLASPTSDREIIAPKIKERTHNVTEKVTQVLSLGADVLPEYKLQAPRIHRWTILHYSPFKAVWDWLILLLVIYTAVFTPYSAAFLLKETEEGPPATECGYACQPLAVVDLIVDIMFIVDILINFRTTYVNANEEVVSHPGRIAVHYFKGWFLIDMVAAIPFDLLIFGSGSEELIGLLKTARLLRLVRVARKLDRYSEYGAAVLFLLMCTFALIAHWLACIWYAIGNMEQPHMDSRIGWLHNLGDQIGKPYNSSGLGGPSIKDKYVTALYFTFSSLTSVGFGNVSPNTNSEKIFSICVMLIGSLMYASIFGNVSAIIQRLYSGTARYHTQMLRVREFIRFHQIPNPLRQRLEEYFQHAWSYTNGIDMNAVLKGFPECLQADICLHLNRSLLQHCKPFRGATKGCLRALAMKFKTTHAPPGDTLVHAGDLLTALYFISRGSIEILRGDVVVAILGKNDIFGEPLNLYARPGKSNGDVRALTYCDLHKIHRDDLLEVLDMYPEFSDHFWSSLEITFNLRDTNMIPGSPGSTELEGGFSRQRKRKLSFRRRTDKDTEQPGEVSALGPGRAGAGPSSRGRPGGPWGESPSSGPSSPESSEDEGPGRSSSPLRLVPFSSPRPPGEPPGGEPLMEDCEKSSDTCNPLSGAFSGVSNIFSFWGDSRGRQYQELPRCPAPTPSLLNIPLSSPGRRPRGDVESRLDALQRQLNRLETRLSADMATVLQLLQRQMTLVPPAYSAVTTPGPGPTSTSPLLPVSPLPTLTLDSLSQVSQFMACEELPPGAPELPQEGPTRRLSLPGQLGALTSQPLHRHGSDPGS

In order of rising “hERG current change (%, negative = inhibition) at 1uM” value:
1. CCOC(=O)N1CCN(C(=O)c2ccc3nc4cc(Cl)ccc4c(=O)n3c2)CC1  -13.7%
2. Cc1ccc(SCC2CNc3nc4ccccc4c(=O)n32)c(C)c1 (centres unmarked)  -11.8%
3. CCc1ccc2c(c1)cc(CN(C(=S)Nc1ccccc1Cl)C1CC1)c1nnnn12  -10.2%
4. CCCCC/C=C/C1=CC(=O)C[C@H](c2ccc(Cl)cc2)C1  -1.14%
5. COC(=O)c1ccc(CSc2nnc(C)n2N)o1  -0.332%
6. CC(C)Cn1c(N)c(C(=O)CSc2cc(Cl)ccc2Cl)c(=O)n(C)c1=O  0.0188%
7. CC1CCCCN1Cc1cnc(Cl)s1 (centres unmarked)  0.0979%
8. COc1ccc(C(=O)Cn2nnc(-c3ccc(N4CCOCC4)cc3)n2)cc1OC  0.578%
9. Cc1onc(-c2ccccc2Cl)c1C(=O)N1CCN(c2ccccc2)CC1  1.1%
10. CC(C)(C)C1(O)CC(C(F)(F)F)=NN1C(=O)Cc1ccc([N+](=O)[O-])cc1 (centres unmarked)  2.23%
11. CC(NS(=O)(=O)c1cccc(Cl)c1)C(=O)Nc1ccc(-c2nc3ccccc3s2)cc1 (centres unmarked)  2.34%
12. CCn1nc(NC(=O)c2ccco2)c2cc3ccc(C)cc3nc21  3.29%
13. CCCCn1c(N)c(N(CCOC)C(=O)c2cc(-c3ccc(OC)c(OC)c3)nc3ccccc23)c(=O)[nH]c1=O  3.55%
14. Cc1ccc2oc(Nc3nc(C)cc(C)n3)nc2c1  3.79%
15. Cc1cccc(-c2noc(-c3cc4ccccc4oc3=O)n2)c1  4.34%
16. COC(=O)[C@H](Cc1ccccc1)NC(=O)NCc1cccs1  4.86%
17. COC(=O)c1nc(NC(=O)c2ccc(Br)cc2)n[nH]1  5.35%
18. COc1ccc(N2C(=O)C3CCCN3C2c2ccc(Cl)cc2)cc1 (centres unmarked)  5.83%
19. O=C(NC(=O)N1CCCCCC1)c1ccccc1  6.46%
20. CCCCc1c(C)[nH]c(C(=O)OCC)c1C  7.36%
21. CC1(NC(=O)Cn2cc(C(F)(F)F)ccc2=O)CCS(=O)(=O)C1 (centres unmarked)  8.03%
22. Cc1cc(C)c([N+](=O)[O-])cc1NC(=O)CCSc1ccccc1Cl  8.87%
23. Cc1nc(-c2cccc(NC(=O)c3ccc(Br)o3)c2)cs1  9.08%
24. CC(C)Cn1cnc2c1c(=O)n(CC(=O)N(C)C)c(=O)n2Cc1ccccc1  9.3%
25. CCCCc1ccc(C2C(C#N)=C(N)SC(N)=C2C#N)s1  10.1%
26. O=C(Cc1ccc(S(=O)(=O)N2CCCC2)s1)Nc1nc2c(s1)CCCC2  10.1%
27. CCOC(=O)c1ccc(N=Cc2c(O)c3ccccc3oc2=O)cc1  10.3%
28. Cc1ccc(C)c(NS(=O)(=O)c2ccc(NC(=O)c3ccco3)cc2)c1  10.5%
29. CC(C)(C)SC(=O)CC1NS(=O)(=O)OC2CCCCC12 (centres unmarked)  10.8%
30. O=[N+]([O-])c1cccc(NC(=S)N2CCN(c3ccccn3)CC2)c1  11.1%
31. COC(=O)C1CCN(C(=O)N2CCOCC2)CC1  13.1%
32. Cc1cccc(-c2noc(CNS(=O)(=O)c3ccccc3)n2)c1  13.2%
33. Cn1cc(CCCC(=O)NCc2ccc(F)cc2)c2ccccc21  13.3%
34. NS(=O)(=O)c1ccc(NC(=O)c2c(F)cccc2Cl)cc1  13.4%
35. COC(=O)c1ccc(C23CC4(C2)[C@H](CN(Cc2cccnc2)[C@@H]4c2ccccc2)C3c2ccc(C(F)(F)F)cc2)cc1 (some centres unmarked)  13.6%
36. COc1ccc(N2CC(C(=O)N[C@@H](CC(C)C)C(=O)NC3CCCC3)CC2=O)cc1 (some centres unmarked)  13.8%
37. CC(NC(=O)C12CC3CC(CC(O)(C3)C1)C2)c1ccc(Cl)cc1Cl (centres unmarked)  15.3%
38. CC(C)C[C@H](NC(=O)C1CCN(C(=O)[C@H](Cc2ccccc2)NC(=O)OC(C)(C)C)CC1)C(=O)O  15.7%
39. COc1ccc2oc(C(=O)Nc3ccccn3)c(C)c2c1  16.1%
40. CCN(CC)C(=O)c1[nH]cnc1C(=O)Nc1cccc(C)c1  16.9%
41. c1ccc2c(Oc3ccc4c(c3)OCO4)nncc2c1  17.3%
42. COc1cc(NC(=O)C2CCCN2S(=O)(=O)c2cccc3cccnc23)cc(OC)c1OC (centres unmarked)  18.3%
43. CC1CCN(c2nc3ccccc3n2CC(=O)c2ccccc2)CC1  19%
44. COc1cc(OC)cc(C(=O)NCCN2C(=O)S/C(=C\c3cccs3)C2=O)c1  26.4%
